The assay deals with THP-1 cells. Put plainly: THP-1 chemotaxis assay. The assay is classed as cell-based, human. The protocol: Chemotaxis assay. L1.2-CCR1 transfectants, THP-1 cells, human monocytes and human neutrophils were collected by centrifugation and resuspended in HBSS containing 0.1% BSA. Chemotaxis assays were performed in 96-well ChemoTx® microplates (Neuroprobe, Rockville, Md.) as follows. Chemokines were added to the lower wells (final volume 29 μL), and 20 μL of cell suspension (5×10^6 cells/mL) was added to the polycarbonate filter (3 μm pore size for neutrophils, 5 μm for other 3 cell types). After incubation at 37° C. in the presence of 5% CO2 for 1 hr (neutrophils), 90 min (monocytes) or 2 h (THP-1 and L1.2-CCR1), cells were removed from the upper surface of the filter by scraping. Cells that migrated into the lower chamber were quantified by using the CyQuant cell proliferation assay kit (Molecular Probes, Eugene, Oreg.) and analyzed with a Tecan (Durham, N.C.) fluorimeter (excitation at 480 nm, emission at 530 nm). Data were analyzed and plotted in arbitrary units of fluorescence using Prism (GraphPad Software, San Diego, Calif.).

These results are taken from patent publication US7572600B2, “Enzymatic activities in chemokine-mediated inflammation” (Chemocentryx, Inc., priority 2004, dated 2009).

As for “CCL5/RANTES: traditional CCR1 ligand chemokine”, the “fold less potent than CCL15Δ24/LKN-1” value is on record as “approximately 3 fold”.

B1: CCL3/MIP-1α: traditional CCR1 ligand chemokine; unlabelled homologous competitor in binding (protein)
chain: ADTPTACCFSYTSRQIPQNFIADYFETSSQCSKPGVIFLTKRSRQVCADPSEEWVQKYVSDLELSA
In the case of B1, the “fold less potent than CCL15Δ24/LKN-1” value is given as “approximately 3 fold”.
